Experimental data: PubChem BioAssay AID588453 (National Center for Advancing Translational Sciences (NCATS), 2011)
Hit rate of the full screen: of about 390,000 compounds, about 4,000 (1%) were called active. The shares of active, inactive and inconclusive entries below differ from those in the screen. The call rests on the fitted dose curve; in most records, active means well fitted inhibition curve with a large enough effect; inconclusive means small, poorly fitted or top-dose-only effect; inactive means no such curve, though single readings can be large or run the other way. Where the call is inconclusive, the potency comes from a doubtful curve fit.

Biological target: Thioredoxin reductase 1, cytoplasmic (Rattus norvegicus) (UniProt O89049)
Assay: qHTS Assay for Inhibitors of Mammalian Selenoprotein Thioredoxin Reductase 1 (TrxR1): qHTS; further: nearly all actives have a fitted effect of over 65% in size
Details: recombinant rTrxR1, NADPH fluorescence consumption, selenite substrate; series mostly up to 114 µM
Summary of the method: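 Rat TrxR1 (90 nM in the dispensed reagent) was pre-reduced with 400 uM NADPH for 5 min at room temperature, then incubated with compound for 15 min. After 400 uM selenite was added, NADPH fluorescence (Ex 340/Em 450 nm) was followed for 8 min.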
Potency means the concentration at half of the fitted maximal effect; tags describe the fitted curve by direction and shape.

Chain of UniProt O89049 (O89049 whole entry, looked up): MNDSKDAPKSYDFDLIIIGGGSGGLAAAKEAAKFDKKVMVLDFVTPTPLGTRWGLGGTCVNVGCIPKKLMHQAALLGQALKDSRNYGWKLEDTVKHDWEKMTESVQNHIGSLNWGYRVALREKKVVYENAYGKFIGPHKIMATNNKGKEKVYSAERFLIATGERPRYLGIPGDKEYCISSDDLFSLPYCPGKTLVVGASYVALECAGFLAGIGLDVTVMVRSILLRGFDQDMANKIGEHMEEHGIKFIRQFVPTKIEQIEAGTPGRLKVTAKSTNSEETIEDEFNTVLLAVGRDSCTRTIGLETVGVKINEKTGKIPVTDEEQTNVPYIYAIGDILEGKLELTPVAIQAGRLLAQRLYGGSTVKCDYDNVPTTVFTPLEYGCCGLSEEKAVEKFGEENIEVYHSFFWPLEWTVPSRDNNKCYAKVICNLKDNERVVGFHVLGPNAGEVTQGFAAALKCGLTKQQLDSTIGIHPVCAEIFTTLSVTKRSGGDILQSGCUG

SMILES	Potency
COc1cc(OC)c(C(=O)NCc2ccco2)cc1OC	inconclusive: 39.8 µM [inhibitor, partial curve]
O=C(O)C(=O)Cc1c[nH]c2ccccc12	inconclusive: 50.1 µM [inhibitor, partial curve]
NC(=O)Cc1ncc(C(F)(F)F)cc1Cl	inactive
Cc1cc(-c2csc(NC(=O)c3ccc(=O)[nH]c3)n2)c(C)n1Cc1ccccc1	inconclusive: 39.8 µM [inhibitor, single point]
CCOc1ccc(NC(=S)N(Cc2ccc(Cl)cc2)Cc2ccco2)cc1	inactive
CCOc1ccc(C2C(C(=O)c3ccco3)=C(O)C(=O)N2CCN2CCOCC2)cc1OCC (stereo unspecified)	inconclusive: 89.1 µM [inhibitor, single point]
COc1ccc(/C=C/C(=O)NC(=S)NNC(=O)c2ccco2)cc1	inconclusive: 50.1 µM [inhibitor, partial curve, poor fit]
COc1ccc2c(c1)c1ncn(CCN3CCCC3)c(=O)c1n2C	inactive
COC(CNC(=O)c1ccc2c3c(onc13)-c1ccccc1C2=O)OC	inconclusive: 39.8 µM [inhibitor, full curve]
COc1ccc(C(=O)NC(=S)NNC(=O)c2cnccn2)cc1OC	inconclusive: 56.2 µM [inhibitor, partial curve, poor fit]
CCCCN1CC2([N+](=O)[O-])C=CC(=O)C([N+](=O)[O-])(C1)C2CC(=O)c1ccccc1 (stereo unspecified)	inconclusive: 20 µM [inhibitor, single point]
CCN(CC)C(=O)Cn1c(C)c(/C=C/c2cc[n+](C)cc2)c2ccccc21	inactive
CCN(CC)CCC(=O)c1ccc(F)cc1	inconclusive: 0.562 µM [inhibitor, partial curve, poor fit]
CC1CCCC=CC2CC(OC(=O)CN(C)C)CC2C(O)C=CC(=O)O1 (stereo unspecified)	inconclusive: 0.562 µM [inhibitor, full curve, poor fit]
CC(C)N(C(=O)CSc1nnc(-c2cc3ccccc3cc2O)n1Cc1ccco1)C(C)C	inconclusive: 25.1 µM [inhibitor, single point]
CC1CCN(CCCN2C(=O)C3C(C(=O)Nc4cccc(Cl)c4)C4C=CC3(O4)C2C(=O)NC2CCCCC2)CC1 (stereo unspecified)	inactive
CCOc1ccc(C(C)NC(=S)NC2CCCCC2)cc1OCC (stereo unspecified)	inactive
O=C1N(Cc2cccnc2)C[C@@H]2C[C@@H](c3cccc(Oc4ccccc4)c3)N3CCC[C@@]123	inconclusive: 79.4 µM [inhibitor, single point]
Nc1c(N(CCCO)C(=O)CCCN2C(=O)c3cccc4cccc(c34)C2=O)c(=O)[nH]c(=O)n1Cc1ccccc1	inactive
S=c1nn[nH]c2ccccc12	inconclusive: 11.2 µM [inhibitor, partial curve]
O=C1c2sc3nc4c(c(=O)n3c2C(=O)N1c1ccccc1)CCC4	inconclusive: 56.2 µM [inhibitor, single point]
CCCc1nc2sc3c(c2c(=O)[nH]1)CCCC3	inactive

SMILES	Potency
COc1ccc(C(=O)n2nc(-c3ccco3)nc2NCc2cccs2)cc1OC	inconclusive: 79.4 µM [inhibitor, partial curve]
Cc1cn2c(nc1=O)OC1C(O)C(COC(=O)c3ccccc3)OC12 (stereo unspecified)	inconclusive: 25.1 µM [inhibitor, partial curve]
CCOc1ccc(N2C(=O)C(Cl)=C(Nc3ccccc3O)C2=O)cc1	inconclusive: 14.1 µM [inhibitor, partial curve]
CNC(=O)[C@]1(C(F)(F)F)C[C@H](CCc2ccccc2)CCCO1	inconclusive: 70.8 µM [inhibitor, partial curve, poor fit]
Cc1ccc(N2C(=O)CC(Sc3cccs3)C2=O)cc1 (stereo unspecified)	active: 79.4 µM
O=C(Nc1sc2c(c1C(=O)NCc1ccco1)CCCC2)c1ccc2c(c1)OCO2	inconclusive: 8.91 µM [inhibitor, full curve]
COc1ccc(N2CCN(S(=O)(=O)c3ccc4c(c3)NC(=O)CC(=O)N4)CC2)cc1	inconclusive: 89.1 µM [inhibitor, single point]
Cc1ccc(-c2c(C)n3c4c(=O)n(C)c(=O)n(C)c4nc3n2CCO)cc1	inactive
COc1ccccc1Oc1c(C)oc2cc(OC(=O)c3ccco3)ccc2c1=O	inconclusive: 11.2 µM [inhibitor, partial curve, poor fit]
Cc1ccc(/C=C/C(=O)OCC(=O)NCCN2C(=O)CSC2=O)cc1	inactive
Cc1ccccc1NC(=O)CSc1nc2c(c(=O)n(C)c(=O)n2C)n1Cc1ccccc1F	inactive
CCn1c(SCC(=O)NNC(=S)Nc2ccccc2)nnc1-c1ccc(Cl)cc1	inconclusive: 17.8 µM [inhibitor, partial curve, poor fit]
O=C1NCCN1CCNS(=O)(=O)c1ccccc1[N+](=O)[O-]	inactive
CCn1c(SCC(=O)C(C)(C)C)nnc1-c1ccccn1	inconclusive: 2 µM [inhibitor, partial curve, poor fit]
O=[N+]([O-])c1ccc(Cl)c(C[n+]2cccc3ccccc32)c1	inactive
O=C(O)c1ccccc1NS(=O)(=O)c1ccc(N/N=C/c2cccc(O)c2O)c([N+](=O)[O-])c1	inconclusive: 44.7 µM [inhibitor, partial curve]
COC/C=C/C1=CC2=CC(=O)C(C)(OC(=O)c3cnc4ccccc4n3)C(=O)C2=CN1CC(C)C (stereo unspecified)	inconclusive: 12.6 µM [inhibitor, partial curve, poor fit]
CCOc1ccc2[nH]c(=O)c(CN(Cc3nnnn3Cc3ccco3)C3CCCCC3)cc2c1	inconclusive: 20 µM [inhibitor, single point]
CCn1cnc2c1c(=O)[nH]c(=O)n2Cc1ccccc1	inactive
N#Cc1ccccc1Cn1cc(/C=C/[N+](=O)[O-])c2ccccc21	inconclusive: 39.8 µM [inhibitor, single point]
CCc1sc(-c2cc3cccc(OC)c3oc2=O)nc1-c1ccccc1	inactive
CC1=CC(=O)C=C(C)C1=NOC(=O)c1cccc([N+](=O)[O-])c1	inconclusive: 8.91 µM [inhibitor, partial curve]

SMILES	Potency
O=[N+]([O-])c1c(Nc2ccc(O)cc2)cc(Cl)c2nonc12	inconclusive: 0.708 µM [inhibitor, full curve, poor fit]
CCCC[n+]1ccn(C2=C([O-])c3ccccc3C(=O)/C2=N\S(=O)(=O)c2ccc(Cl)cc2)c1	inactive
CC(=O)NC(=S)NNC(=O)c1ccc(Br)cc1	inconclusive: 44.7 µM [inhibitor, partial curve, poor fit]
O=C(CCn1c(=O)oc2ccccc21)n1c(=O)oc2ccccc21	inconclusive: 20 µM [inhibitor, full curve]
Cc1ccc(CS(=O)Cc2ccc(C(=O)NC3CCCCCC3)o2)cc1 (stereo unspecified)	inconclusive: 79.4 µM [inhibitor, single point]
CCCOc1ccc(CCC(=O)N/N=C/c2ccc([N+](=O)[O-])o2)cc1	inconclusive: 50.1 µM [inhibitor, partial curve, poor fit]
Cc1ccc(/C=N/n2c(-c3cccnc3)n[nH]c2=S)o1	inconclusive: 56.2 µM [inhibitor, partial curve]
O=[N+]([O-])c1cc(C(F)(F)F)ccc1Oc1cccnc1[N+](=O)[O-]	inconclusive: 50.1 µM [inhibitor, partial curve]
O=[N+]([O-])c1cc(/C=N/n2c(-c3cccnc3)n[nH]c2=S)ccc1Cl	inconclusive: 56.2 µM [inhibitor, partial curve, poor fit]
O=[N+]([O-])c1ccc(Cl)c2c1C1C=CCC1C(c1ccccn1)N2 (stereo unspecified)	inconclusive: 20 µM [inhibitor, single point]
O=c1[nH]c(S)nc2sc3c(c12)CCCC3	inconclusive: 50.1 µM [inhibitor, single point]
CCc1ccc(NC(=O)c2ccc3c(O)c(S(=O)(=O)c4ccc(Cl)cc4)c(=O)[nH]c3c2)cc1	inactive
NS(=O)(=O)c1ccc(NC(=S)NC(=O)c2ccco2)cc1	inconclusive: 31.6 µM [inhibitor, partial curve, poor fit]
CCOc1ccc(/C(O)=C2\C(=O)C(=O)N(CCN(C)C)C2c2cccc(OC)c2OC)cc1Cl (stereo unspecified)	inconclusive: 11.2 µM [inhibitor, full curve]
COc1ccc2c(c1)CCc1cc(C(=O)O)sc1-2	active: 44.7 µM
COc1ccc(N(C)S(=O)(=O)c2cccc(C(=O)N(C)Cc3ccc(C)o3)c2)cc1	inconclusive: 6.31 µM [inhibitor, single point]
Cc1c(NC2(C#N)CCCC2)c(=O)n(-c2ccccc2)n1C	inconclusive: 89.1 µM [inhibitor, single point]
COCCNC(=S)Nc1ccc2nc(N3CCN(C)CC3)cc(C)c2c1	inconclusive: 79.4 µM [inhibitor, single point]
Cc1ccc(C(C)C)c(OCC(=O)NC(=S)Nc2ccccc2N2CCOCC2)c1	inconclusive: 89.1 µM [inhibitor, single point]
O=C(NNC(=O)C(c1ccccc1)c1ccccc1)c1ccccn1	inactive
C=CCn1c(Cc2cccs2)nnc1SCC(=O)c1cccc(Br)c1	inconclusive: 44.7 µM [inhibitor, partial curve]
O=C(CSc1nc2ccccc2n1CCc1ccccc1)N1CCOCC1	inconclusive: 79.4 µM [inhibitor, partial curve, poor fit]
